In the supplement of paper PMC12217912:
The list shows a part of the results. The full chains were built here from the parent and the listed change. Inactive controls read about 0.05.

B1: TEV protease; numbered along this chain (parent)
chain: MGESLFKGPRDYNPISSSICHLTNESDGHTTSLYGIGFGPFIITNKHLFRRNNGTLVVQSLHGVFKVKDTTTLQQHLVDGRDMIIIRMPKDFPPFPQKLKFREPQREERICLVTTNFQTKSMSSMVSDTSCTFPSGDGIFWKHWIQTKDGQCGSPLVSTRDGFIVGIHSASNFTNTNNYFTSVPKNFMELLTNQEAQQWVSGWRLNADSVLWGGHKVFMVKPEEPFQPVKEATQL

Variants of: B1
Assay: raw area under fraction-flipped curve 0-4 h after induction (AUC4h, not background-subtracted), DNA-recorder readout of cleavage of the substrate (dimensionless); higher = more cleavage of the substrate by the protease variant
Conditions: temperature: 34 °C; time window: 0-4 h after rhamnose induction
Protocol: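 In vivo DNA recorder in E. coli TOP10(DE3) ΔrhaA at 34 °C. Each TEVp single-site mutant (parent TEVp 0) is paired with a single-site variant of the 7-mer TEVs (canonical ENLYFQ|S). The substrate sits between flexible linkers in a Bxb1-sfGFP-TEVs-SsrA fusion, so cleavage stabilises Bxb1 and speeds flipping of a recombination array, read by NGS. The value is the raw area under the fraction-flipped curve over 0-4 h after rhamnose induction (AUC4h), with ≥20 reads per time point. It is not background-subtracted; inactive controls average about 0.047.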
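Further: Bxb1 expression induced with 0.2% (w/v) L-rhamnose at OD600 near 0.5, cultures sampled hourly, flipped fraction per protease–substrate barcode pair counted by paired-end Illumina sequencing.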

Variant	area with substrate ENAYFQS	area with substrate ENCYFQS	area with substrate ENDYFQS	area with substrate ENEYFQS	area with substrate ENFYFQS	area with substrate ENGYFQS	area with substrate ENHYFQS	area with substrate ENIYFQS	area with substrate ENKYFQS	area with substrate ENMYFQS	area with substrate ENNYFQS	area with substrate ENPYFQS	area with substrate ENQYFQS	area with substrate ENRYFQS	area with substrate ENSYFQS	area with substrate ENTYFQS	area with substrate ENVYFQS	area with substrate ENYYFQS	area with substrate ENWYFQS
L191C	0.0659	0.0657	0.0698	0.0648	0.0598	0.0637	0.0581	0.0867	0.0607	0.0745	0.0638	0.0705	0.059	0.0601	0.0662	0.0598	0.0698	0.0781	–
T174R	0.0384	0.0636	0.0611	0.0736	0.0661	0.0769	0.0634	0.0412	–	0.0729	0.0579	0.0578	0.0684	0.0658	0.0572	0.0679	0.129	0.0805	0.0529
T174L	0.0521	–	–	0.0685	–	–	–	–	–	0.0712	–	–	–	–	0.0272	–	–	–	–
H168T	0.0571	0.0545	0.0693	0.0853	–	–	–	–	0.0547	0.0481	–	0.0578	–	–	0.0565	0.0479	0.0658	–	0.0094
H168V	0.0577	0.0493	0.0695	0.0642	0.048	0.0619	0.0669	0.0609	0.0664	–	–	–	0.056	–	0.0729	–	0.0551	0.0468	–
H168R	0.0618	0.0542	0.0584	–	0.0739	0.0691	0.0387	–	–	0.0659	0.0658	–	0.0664	–	0.0629	0.0626	0.0464	0.0533	–
H168S	0.0601	–	0.0528	–	0.0566	–	–	0.0635	0.0494	0.0675	–	–	0.0666	0.0669	0.0537	0.0547	–	0.0686	–
H168P	0.0731	0.0485	–	0.056	–	0.0532	–	–	–	0.0604	–	0.0533	–	0.0628	–	0.0561	0.0556	–	–
P184A	0.0529	0.0615	0.0581	0.0686	0.0614	0.0574	0.0591	0.0783	0.0537	0.0701	0.0534	0.0534	0.0601	0.0528	0.0594	0.0585	0.0656	0.0606	–
P184R	0.0491	0.0607	0.0434	0.0555	0.0524	0.0591	–	–	–	–	–	0.0695	0.035	0.0497	0.0634	–	–	–	–
P184Q	0.0553	0.0577	0.0531	0.0477	0.0612	–	0.0475	0.0928	–	–	0.0546	0.0588	0.0606	0.0426	0.0456	0.0519	0.0534	–	0.0617
N186V	0.0564	–	0.0628	–	–	–	–	0.0791	–	–	0.0465	0.0708	0.0556	–	–	0.0634	–	–	–
T159C	0.0657	–	0.0599	–	–	–	0.0451	–	–	–	–	–	0.0698	–	0.0734	–	–	–	0.0596
W144D	0.0652	–	0.0564	0.0676	–	0.0655	0.059	–	0.0922	0.078	0.0726	0.0873	0.0624	–	–	0.0523	0.0582	–	–
W141S	0.0421	0.0574	–	0.0484	0.0581	0.0596	0.0604	–	0.0565	–	0.0521	0.0524	0.0524	0.0417	0.0533	0.0452	0.0489	–	–
